Measured values: the supplement of paper PMC9046079
± gives the standard deviation of the averaged measurements. The list shows a part of the results.

Experiments:
[1] = test system: murine small intestinal organoids (ENR+CD Paneth differentiation); experiment: cellular ATP (CellTiter-Glo 3D) relative to plate median (log10 fold change); higher = more viable cells; settings: 6 d
[2] = test system: murine small intestinal organoids (ENR+CD Paneth differentiation); experiment: carbachol-stimulated secreted lysozyme activity relative to plate median (log10 fold change); higher = more Paneth cell lysozyme secretion; settings: 6 d, carbachol 10 µM
[3] = test system: murine small intestinal organoids (ENR+CD Paneth differentiation); experiment: basal (non-stimulated) secreted lysozyme activity relative to plate median (log10 fold change); higher = more Paneth cell lysozyme secretion; settings: 6 d
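Throughout, for basal (non-stimulated) secreted lysozyme activity relative to plate median: ISC-enriched organoid precursors grown as 2.5D pseudo-monolayer on Matrigel, compound given on day 0 and day 3, plate values LOESS-normalized before median fold change, three murine donors.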
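Throughout, for cellular ATP (CellTiter-Glo 3D) relative to plate median: 2.5D pseudo-monolayer culture of ISC-enriched organoids partly embedded atop Matrigel, compound added on day 0 and again on day 3, per-plate LOESS correction before median fold change.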

`C=C[C@@]1(C)CC(=O)[C@]2(O)[C@@]3(C)[C@@H](O)CCC(C)(C)[C@@H]3[C@H](O)[C@H](OC(C)=O)[C@@]2(C)O1` [Forskolin] was tested, and the “cellular ATP (log10)” value ([1]; 0.08 µM) was -0.213 ± 0.13, the “cellular ATP (log10)” value ([1]; 0.4 µM) was -0.175 ± 0.08 and the “cellular ATP (log10)” value ([1]; 2 µM) was -0.33 ± 0.34. The “cellular ATP (log10)” value ([1]; 10 µM) was -0.119 ± 0.22, the “carbachol-stimulated secreted lysozyme activity (log10)” value ([2]; 0.08 µM) was 0.0708 ± 0.057 and the “carbachol-stimulated secreted lysozyme activity (log10)” value ([2]; 0.4 µM) was 0.365 ± 0.18. For the same compound, the “carbachol-stimulated secreted lysozyme activity (log10)” value ([2]; 2 µM) was 0.164 ± 0.3, the “carbachol-stimulated secreted lysozyme activity (log10)” value ([2]; 10 µM) was 0.22 ± 0.066 and the “basal (log10)” value ([3]; 0.08 µM) was -0.00661 ± 0.11. For the same compound, the “basal (log10)” value ([3]; 0.4 µM) was 0.159 ± 0.12, the “basal (log10)” value ([3]; 2 µM) was 0.191 ± 0.21 and the “basal (log10)” value ([3]; 10 µM) was 0.219 ± 0.13.

With `CNC(=O)c1cc(Oc2ccc(NC(=O)Nc3ccc(Cl)c(C(F)(F)F)c3)cc2)ccn1` [Sorafenib] the “cellular ATP (log10)” value ([1]; 0.08 µM) was 0.0432 ± 0.2, the “cellular ATP (log10)” value ([1]; 0.4 µM) was 0.0517 ± 0.25 and the “cellular ATP (log10)” value ([1]; 2 µM) was -0.229 ± 0.55. The “cellular ATP (log10)” value ([1]; 10 µM) was 0.0905 ± 0.077, the “carbachol-stimulated secreted lysozyme activity (log10)” value ([2]; 0.08 µM) was 0.0356 ± 0.16 and the “carbachol-stimulated secreted lysozyme activity (log10)” value ([2]; 0.4 µM) was 0.147 ± 0.11. The “carbachol-stimulated secreted lysozyme activity (log10)” value ([2]; 2 µM) was -0.00826 ± 0.014, the “carbachol-stimulated secreted lysozyme activity (log10)” value ([2]; 10 µM) was -0.018 ± 0.0091 and the “basal (log10)” value ([3]; 0.08 µM) was 0.0281 ± 0.11. For the same compound, the “basal (log10)” value ([3]; 0.4 µM) was 0.184 ± 0.24, the “basal (log10)” value ([3]; 2 µM) was -0.04 ± 0.0078 and the “basal (log10)” value ([3]; 10 µM) was 0.0743 ± 0.13.

`CC(C)(F)C[C@H](N[C@@H](c1ccc(-c2ccc(S(C)(=O)=O)cc2)cc1)C(F)(F)F)C(=O)NC1(C#N)CC1` [Odanacatib (MK-0822)] was tested, and the “cellular ATP (log10)” value ([1]; 0.08 µM) was 0.119 ± 0.23, the “cellular ATP (log10)” value ([1]; 0.4 µM) was 0.208 ± 0.31 and the “cellular ATP (log10)” value ([1]; 2 µM) was -0.00842 ± 0.33. For the same compound, the “cellular ATP (log10)” value ([1]; 10 µM) was 0.00615 ± 0.4, the “carbachol-stimulated secreted lysozyme activity (log10)” value ([2]; 0.08 µM) was 0.154 ± 0.1 and the “carbachol-stimulated secreted lysozyme activity (log10)” value ([2]; 0.4 µM) was 0.293 ± 0.3. The “carbachol-stimulated secreted lysozyme activity (log10)” value ([2]; 2 µM) was 0.109 ± 0.07, the “carbachol-stimulated secreted lysozyme activity (log10)” value ([2]; 10 µM) was -0.0572 ± 0.085 and the “basal (log10)” value ([3]; 0.08 µM) was 0.0864 ± 0.19. The “basal (log10)” value ([3]; 0.4 µM) was 0.162 ± 0.28, the “basal (log10)” value ([3]; 2 µM) was 0.0244 ± 0.11 and the “basal (log10)” value ([3]; 10 µM) was -0.0353 ± 0.1.

In the case of `COCCOc1ccc2c(c1)ncn2-c1ccc2cccc(N3CCC(N)CC3)c2n1`, the “cellular ATP (log10)” value ([1]; 0.08 µM) is reported as 0.0695 ± 0.15, the “cellular ATP (log10)” value ([1]; 0.4 µM) is reported as 0.186 ± 0.21 and the “cellular ATP (log10)” value ([1]; 2 µM) is reported as 0.00768 ± 0.13. The “cellular ATP (log10)” value ([1]; 10 µM) was -0.258 ± 0.38, the “carbachol-stimulated secreted lysozyme activity (log10)” value ([2]; 0.08 µM) was 0.162 ± 0.24 and the “carbachol-stimulated secreted lysozyme activity (log10)” value ([2]; 0.4 µM) was -0.0444 ± 0.0051. For the same compound, the “carbachol-stimulated secreted lysozyme activity (log10)” value ([2]; 2 µM) was 0.113 ± 0.13, the “carbachol-stimulated secreted lysozyme activity (log10)” value ([2]; 10 µM) was -0.155 ± 0.098 and the “basal (log10)” value ([3]; 0.08 µM) was 0.0314 ± 0.04. The “basal (log10)” value ([3]; 0.4 µM) was 0.0663 ± 0.044, the “basal (log10)” value ([3]; 2 µM) was 0.102 ± 0.087 and the “basal (log10)” value ([3]; 10 µM) was -0.0583 ± 0.075.

In the case of `Oc1ncnc2[nH]ncc12` [Allopurinol], the “cellular ATP (log10)” value ([1]; 0.08 µM) is reported as 0.212 ± 0.18, the “cellular ATP (log10)” value ([1]; 0.4 µM) is reported as -0.098 ± 0.13 and the “cellular ATP (log10)” value ([1]; 2 µM) is reported as -0.162 ± 0.21. The “cellular ATP (log10)” value ([1]; 10 µM) was -0.454 ± 0.47, the “carbachol-stimulated secreted lysozyme activity (log10)” value ([2]; 0.08 µM) was 0.0248 ± 0.012 and the “carbachol-stimulated secreted lysozyme activity (log10)” value ([2]; 0.4 µM) was -0.15 ± 0.11. For the same compound, the “carbachol-stimulated secreted lysozyme activity (log10)” value ([2]; 2 µM) was -0.086 ± 0.036, the “carbachol-stimulated secreted lysozyme activity (log10)” value ([2]; 10 µM) was -0.161 ± 0.14 and the “basal (log10)” value ([3]; 0.08 µM) was 0.0193 ± 0.024. The “basal (log10)” value ([3]; 0.4 µM) was -0.0361 ± 0.08, the “basal (log10)” value ([3]; 2 µM) was -0.0041 ± 0.024 and the “basal (log10)” value ([3]; 10 µM) was -0.0508 ± 0.06.

With `CCN1CCC[C@H]1CNC(=O)c1cc(S(N)(=O)=O)ccc1OC` [Levosulpiride] the “cellular ATP (log10)” value ([1]; 0.08 µM) was -0.0429 ± 0.16, the “cellular ATP (log10)” value ([1]; 0.4 µM) was -0.00649 ± 0.17 and the “cellular ATP (log10)” value ([1]; 2 µM) was 0.0311 ± 0.19. For the same compound, the “cellular ATP (log10)” value ([1]; 10 µM) was 0.0899 ± 0.12, the “carbachol-stimulated secreted lysozyme activity (log10)” value ([2]; 0.08 µM) was -0.0868 ± 0.1 and the “carbachol-stimulated secreted lysozyme activity (log10)” value ([2]; 0.4 µM) was 0.126 ± 0.12. For the same compound, the “carbachol-stimulated secreted lysozyme activity (log10)” value ([2]; 2 µM) was 0.147 ± 0.21, the “carbachol-stimulated secreted lysozyme activity (log10)” value ([2]; 10 µM) was -0.0725 ± 0.041 and the “basal (log10)” value ([3]; 0.08 µM) was 0.0131 ± 0.084. The “basal (log10)” value ([3]; 0.4 µM) was 0.0235 ± 0.032, the “basal (log10)” value ([3]; 2 µM) was 0.0506 ± 0.026 and the “basal (log10)” value ([3]; 10 µM) was -0.0276 ± 0.083.

`CN[C@@H](C)C(=O)N[C@H](C(=O)N1CCC[C@H]1C(=O)Nc1snnc1-c1ccccc1)C1CCCCC1` was tested, and the “cellular ATP (log10)” value ([1]; 0.08 µM) was 0.151 ± 0.21, the “cellular ATP (log10)” value ([1]; 0.4 µM) was 0.158 ± 0.13 and the “cellular ATP (log10)” value ([1]; 2 µM) was 0.00315 ± 0.2. For the same compound, the “cellular ATP (log10)” value ([1]; 10 µM) was 0.241 ± 0.21, the “carbachol-stimulated secreted lysozyme activity (log10)” value ([2]; 0.08 µM) was 0.0117 ± 0.04 and the “carbachol-stimulated secreted lysozyme activity (log10)” value ([2]; 0.4 µM) was -0.0335 ± 0.078. For the same compound, the “carbachol-stimulated secreted lysozyme activity (log10)” value ([2]; 2 µM) was -0.0683 ± 0.031, the “carbachol-stimulated secreted lysozyme activity (log10)” value ([2]; 10 µM) was -0.0221 ± 0.053 and the “basal (log10)” value ([3]; 0.08 µM) was -0.00154 ± 0.031. For the same compound, the “basal (log10)” value ([3]; 0.4 µM) was -0.0202 ± 0.045, the “basal (log10)” value ([3]; 2 µM) was 0.0832 ± 0.17 and the “basal (log10)” value ([3]; 10 µM) was 0.103 ± 0.085.

With `Cc1ccc(-c2cc(C(F)(F)F)nn2-c2ccc(S(N)(=O)=O)cc2)cc1` [Celecoxib] the “cellular ATP (log10)” value ([1]; 0.08 µM) was -0.0344 ± 0.27, the “cellular ATP (log10)” value ([1]; 0.4 µM) was -0.299 ± 0.27 and the “cellular ATP (log10)” value ([1]; 2 µM) was -0.118 ± 0.25. For the same compound, the “cellular ATP (log10)” value ([1]; 10 µM) was -0.128 ± 0.17, the “carbachol-stimulated secreted lysozyme activity (log10)” value ([2]; 0.08 µM) was -0.0856 ± 0.15 and the “carbachol-stimulated secreted lysozyme activity (log10)” value ([2]; 0.4 µM) was -0.101 ± 0.23. For the same compound, the “carbachol-stimulated secreted lysozyme activity (log10)” value ([2]; 2 µM) was -0.118 ± 0.17, the “carbachol-stimulated secreted lysozyme activity (log10)” value ([2]; 10 µM) was -0.178 ± 0.0085 and the “basal (log10)” value ([3]; 0.08 µM) was -0.0413 ± 0.055. The “basal (log10)” value ([3]; 0.4 µM) was -0.0532 ± 0.081, the “basal (log10)” value ([3]; 2 µM) was -0.0843 ± 0.038 and the “basal (log10)” value ([3]; 10 µM) was -0.0994 ± 0.04.

With `C[C@]12C=CC(=O)N[C@@H]1CC[C@@H]1[C@@H]2CC[C@]2(C)[C@@H](C(=O)Nc3cc(C(F)(F)F)ccc3C(F)(F)F)CC[C@@H]12` [Dutasteride] the “cellular ATP (log10)” value ([1]; 0.08 µM) was 0.0572 ± 0.11, the “cellular ATP (log10)” value ([1]; 0.4 µM) was -0.266 ± 0.33 and the “cellular ATP (log10)” value ([1]; 2 µM) was -0.098 ± 0.33. The “cellular ATP (log10)” value ([1]; 10 µM) was -0.0572 ± 0.12, the “carbachol-stimulated secreted lysozyme activity (log10)” value ([2]; 0.08 µM) was 0.0436 ± 0.074 and the “carbachol-stimulated secreted lysozyme activity (log10)” value ([2]; 0.4 µM) was -0.0561 ± 0.17. The “carbachol-stimulated secreted lysozyme activity (log10)” value ([2]; 2 µM) was -0.121 ± 0.18, the “carbachol-stimulated secreted lysozyme activity (log10)” value ([2]; 10 µM) was -0.192 ± 0.067 and the “basal (log10)” value ([3]; 0.08 µM) was 0.0652 ± 0.14. For the same compound, the “basal (log10)” value ([3]; 0.4 µM) was 0.00601 ± 0.098, the “basal (log10)” value ([3]; 2 µM) was -0.105 ± 0.12 and the “basal (log10)” value ([3]; 10 µM) was -0.0918 ± 0.028.
